The other results are listed elsewhere or left out.
tested on: PF3D7_0420300 AP2 domain 1 (GST-tagged); test: gcPBM binding intensity (ln(normalized median fluorescence intensity)); higher = stronger DNA binding
Method in brief: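 The highest Masliner-normalised natural-log median intensity across replicate spots of either probe orientation is reported as binding intensity. GST-tagged P. falciparum DNA-binding domains expressed in E. coli were applied for 1 h to an Agilent 4 × 180k array of primer-extended double-stranded 36-bp intergenic genomic probes plus negative controls, and bound protein was detected with Alexa488 anti-GST antibody and scanned at 488 nm.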

Row | Sequence | gcPBM binding intensity (ln)
1 | TAAAAAAAATACAAAAGTACACAAAATTATACGTTA [XGTACX_site4656] | 9.42
2 | GTAACATTTTAAATATATACATATAATGTATTTATA [GTGCAC_negctrl_site344] | 9.09
3 | ATATATATATTATGGGGTACAAACATCAAAAGATTT [XGTACX_site3944] | 9.31
4 | ATTAATTAAAAGGGAACACATAGAAATTATAAAACA [GTGCAC_negctrl_site420] | 9.66
5 | ATTAAACCGTGGGAGCACACACACACACACACACAT [TGCATGCA_negctrl_site72] | 10.8
6 | TGTTGTATCAATTTTTGTACATAACACATATGTATA [XGTACX_site3666] | 9.25
7 | TATAAAAGATTGGAATGTACATAAGAAAAAAATATA [XGTACX_site5028] | 9.41
8 | TGTGTAGGGGATATTCTACTTTAAAAATAAATATAT [CACACA_negctrl_site207] | 9.16
9 | TTCAAGATTTATTATACACACATATTAATATTTATA [CACACA_site6413] | 9.34
10 | GGCCCAACTTCTTCTGACGAAAACGTAAATTGTGTG [XGTACX_negctrl_site533] | 9.22
11 | AATCATATTAGTATGGTGCAACATATATAAATATAT | 9.15
12 | TTATTTTCCCTTTGTGCATGCAGTTTACTTTTTGTG [TGCATGCA_site993] | 9.7
13 | ACACATATATTAAATGTGCACTGAAATATGCATATA [GTGCAC_site9936] | 9.27
14 | ACTTGTAAGAGACACACACACACACGGATATAAATA [CACACA_site6517] | 10.1
15 | CAAAATAAAAATAACACACACATTTATTTATATACA [CACACA_site6679] | 9.77
16 | ATATATGTATATTTATGTACGTATTCCTGTATAGTC [XGTACX_site5763] | 9.43
17 | GGAAAAAAAAATAAATGTACGAATTAACATATCAAA [XGTACX_site5653] | 9.23
18 | ACACAAGCACACAAATGTACATATATATATATATAT [XGTACX_site5146] | 9.37
19 | TTATTCATTTTTATTTGTACATAATTATATGAAATT [XGTACX_site6389] | 9.19
20 | TTTTATATTTTATGCACACTTATAAGAAATATGTAC [CACACA_site3040] | 9.24
21 | TATTTATTAAAACACACACACACACCCACAAAATAA [CACACA_site241] | 10.1
22 | TTATGTATTCATTTTTTTTAAGCACCCCAAAATGAT [CACACA_negctrl_site1344] | 9.01
23 | ATAATATATATATAAACACACAAAAAAAATTATATA [CACACA_site1534] | 9.74

Row | Sequence | gcPBM binding intensity (ln)
24 | ATTTTTTTTTATGATACACACTTGGATAATTAAAAC [CACACA_site4473] | 9.31
25 | ATTCTATTATAATACACACCCAAATATTAAAAAGAT [CACACA_site2960] | 9.73
26 | CCACATGATATGATTACACACATATATATATTTACA [CACACA_site164] | 9.66
27 | TATTATATATATATATGTACATATATATGCTAAAAA [XGTACX_site5297] | 9.15
28 | GATGTTGCAAAATTCTGTACATATAAATGTATACAT [XGTACX_site5009] | 9.28
29 | CAAAATGTTTCTCATTGTACACAAAATAAATGTCCT [XGTACX_site6798] | 9.04
30 | TAATGAATTTAAATTTTAAAATTAATAAAAAAAATA [TGCATGCA_negctrl_site15] | 8.89
31 | ATACATATGTATATTTGTACATATTAGACAATCTTA [XGTACX_site6706] | 9.04
32 | ACATTTACAAGGAAAGTGCATATAAGAAAAATAAAA [GTGCAC_site9587] | 9.24
33 | ATTAGTAAATTTATATGTACACATTGTTATTTTATA [XGTACX_site1177] | 9.38
34 | TATTAATATGGTAATACACACTAATATACTTTTGTT [CACACA_site6860] | 9.46
35 | ATATATATATATATATGTACGTATTCATAAACAACA [XGTACX_site4282] | 9.32
36 | TTTAATGTTACTCCTTGTACACAAAATAGTGTTATA [XGTACX_site8416] | 9.2
37 | CTGTAAAAAATATAAACACACATAGAGATATATAAA [CACACA_site6292] | 9.73
38 | TAAGTATATTTTATATGTACTTATATATTTAATTTT [XGTACX_site4615] | 8.91
39 | CAAGCTTTTTCCTTTACACACATTAGTTATTTATAT [CACACA_site6781] | 9.75
40 | ATAGGTTCCCAAAATGCACACCAATGAAATTATTTA [CACACA_site8081] | 9.21
41 | ATATTATTTTAAAGTACACACATATATTAAGATATA [CACACA_site5306] | 9.47
42 | TATTTTATATTTTATGCACACTTATAAGAAATATGT [CACACA_site5647] | 9.19
43 | ATGATTTCACAAGACACACACATACAAATTTATATA [CACACA_site3909] | 9.64
44 | CAGTATTACATGAGGACACACACAAAAAAAATATAT [CACACA_site8156] | 9.88
45 | TTAATATATTATCTGGTGCATAAACACGTTATACCT | 9.19
46 | ATAATGAAAACAAGCACACATACATAAAATAAAATA [CACACA_site3257] | 9.86

Row | Sequence | gcPBM binding intensity (ln)
47 | ATGGAAGGATAATAAAAACCTTTACCTTTCTGTTTA [GTGCAC_negctrl_site380] | 9.08
48 | ATAAATTTTTAAACAGCACACATAAATATAATATAT [CACACA_site8691] | 9.58
49 | AATATTACAATTTGGTGTACAGGTGCACATGCCTCA [XGTACX_site1730] | 9.26
50 | TCTACAATTTTAATTACACACTATAAAAAAGAAAGA [CACACA_site5624] | 9.35
51 | TAGCTTATAAGATATGCACACACAACACTTACAAAA [CACACA_site8174] | 9.67
52 | AACAAATAAAAAAAAATAAAAATAAAAATAAAAAAA [XGTACX_negctrl_site451] | 9.33
53 | TTTAAAATTATAAGGATTAAAAAAAAAAAAAATAAA [CACACA_negctrl_site114] | 9.06
54 | TTATTTATGAAGTATACACACAATATAGATTTATAT [CACACA_site6703] | 9.33
55 | AAGAATTATATTAATAGTACATATATATTAATTTAT [XGTACX_site5713] | 9.08
56 | TTTTGTTATTATAAATAGTAACATTTGTGAATATAT [TGCATGCA_negctrl_site132] | 8.92
57 | AAGACATTTTTTTGTTGTACGTCTTCATTTATTGTA [XGTACX_site2890] | 9.48
58 | ATACTCACGAAACACACACACAATATATATATATAT [CACACA_site4136] | 9.84
59 | TTTATATTTCTTCATCGTACACATAAAAAAAAAAAA [XGTACX_site3244] | 8.9
60 | TTTTATATTTTAAGAGTGCATTTTATATCTTTTTCT | 9.21
61 | GAAAATATTAAATGAAGTACAATATTTATGTTACTT [XGTACX_site8737] | 9.19
62 | ATAATAACTGATAAATGTACATATAAATTTTATGAT [XGTACX_site195] | 9.43
63 | ATAATTTAAAAACATTGTACATTAATATATATGTAT [XGTACX_site8970] | 9.12
64 | AGGATATGCGGACACACACACATATATATATATATA [CACACA_site5247] | 9.79
65 | AATATATATTTGTGTACACATTATATATATATATAT [CACACA_site6103] | 9.32
66 | AATCTCAGAATATACTGTACTTTAAGAAAAAAAAAA [XGTACX_site110] | 8.8
67 | AAAATTTAAATAGGAAGTACGTTCACTAAGAAAATA [XGTACX_site6546] | 9.37
68 | AAATAAAGATATATATATATATATATATATAATTTT [CACACA_negctrl_site30] | 9.11
69 | CATAAATCAGCCATAACACACATACCTATATACATA [CACACA_site6324] | 9.65

Row | Sequence | gcPBM binding intensity (ln)
70 | AAAATGTGCATATTTGCACACTTCAATATATATATA [CACACA_site1791] | 9.22
71 | AAATATTTTGCATACACATGCAAATATTTTTTACAT [TGCATGCA_site554] | 9.16
72 | AATATAAAAAGGCACACACACAAAAAAAAAAAAAAA [CACACA_site896] | 9.78
73 | TGAAAGAATGTTAATAGTACACACAATTATTATATA [XGTACX_site7936] | 9.36
74 | ATTGATATTGTATAATGTACAGGAAAAAAAAAAAAA [XGTACX_site526] | 9.1
75 | TAAGAACTATTCAGTAGTACCTATATGGATTACTAA [XGTACX_site4278] | 8.87
76 | TTCTTTATTTTTTCTACACACATTATGTATTCAAAG [CACACA_site3527] | 9.88
77 | TGAAAGAACCTGATTACACACATAAGTTATAAATAT [CACACA_site6165] | 9.51
78 | CAGGTGCACTATATTACACACGCTTCTTTTTTTTTA [CACACA_site2069] | 9.64
79 | TTGATATTATTGTATAAACATAATAGAGATAAAGAG [TGCATGCA_negctrl_site455] | 9.35
80 | TACAAAAAAATAAATAATAAAAAAAAATATATATAA [XGTACX_negctrl_site344] | 9.33
81 | TGAAGGATATATTCCGTGCACATATAAATATATACA | 9.18
82 | AACATGTTAACTAAATGTACACACCTATGTTGATGT [XGTACX_site3777] | 9.45
83 | GGAAAACACAAAAACTGTACATTTATTCAACATATA [XGTACX_site5831] | 9.32
84 | TATATACATATATACACACACATATATATATATATA [CACACA_site2805] | 9.6
85 | ATTTCTAAATGTTGGTGTACGTTTTTTTATAACCTT [XGTACX_site1752] | 9.58
86 | ATTATTTAAAAAAAATGTACATAATAAATATGAACG [XGTACX_site4010] | 9.02
87 | AATAAATGGAATGTCACACATATATATATATATATA [CACACA_site4869] | 9.17
88 | AGTGTATGTATATAAACACACATACATATTTATAAC [CACACA_site6777] | 9.48
89 | AAAAAAAAGAAAGAAAGTACAAATTATAAAATGAAC [XGTACX_site860] | 9.71
